# Measured values as given in the supplement of paper PMC12217912.
# The other results are listed elsewhere or left out. The full chains were built here from the parent and the listed change. Values near 0.05 are background.
# B1: TEV protease; numbered along this chain (parent)
# chain: MGESLFKGPRDYNPISSSICHLTNESDGHTTSLYGIGFGPFIITNKHLFRRNNGTLVVQSLHGVFKVKDTTTLQQHLVDGRDMIIIRMPKDFPPFPQKLKFREPQREERICLVTTNFQTKSMSSMVSDTSCTFPSGDGIFWKHWIQTKDGQCGSPLVSTRDGFIVGIHSASNFTNTNNYFTSVPKNFMELLTNQEAQQWVSGWRLNADSVLWGGHKVFMVKPEEPFQPVKEATQL
# Variants of: B1
# Experiment: raw area under fraction-flipped curve 0-4 h after induction (AUC4h, not background-subtracted), DNA-recorder readout of cleavage of the substrate (dimensionless); higher = more cleavage of the substrate by the protease variant
# Settings: temperature: 34 °C; time window: 0-4 h after rhamnose induction
# Protocol: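 In vivo DNA recorder in E. coli TOP10(DE3) ΔrhaA at 34 °C. Each TEVp single-site mutant (parent TEVp 0) is paired with a single-site variant of the 7-mer TEVs (canonical ENLYFQ|S). The substrate sits between flexible linkers in a Bxb1-sfGFP-TEVs-SsrA fusion, so cleavage stabilises Bxb1 and speeds flipping of a recombination array, read by NGS. The value is the raw area under the fraction-flipped curve over 0-4 h after rhamnose induction (AUC4h), with ≥20 reads per time point. It is not background-subtracted; inactive controls average about 0.047.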
# 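Note: Bxb1 expression induced with 0.2% (w/v) L-rhamnose at OD600 near 0.5, cultures sampled hourly, flipped fraction per protease–substrate barcode pair counted by paired-end Illumina sequencing.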
Variant,area with substrate ENLYFAS,area with substrate ENLYFCS,area with substrate ENLYFDS,area with substrate ENLYFES,area with substrate ENLYFFS,area with substrate ENLYFHS,area with substrate ENLYFIS,area with substrate ENLYFKS,area with substrate ENLYFMS,area with substrate ENLYFNS,area with substrate ENLYFPS,area with substrate ENLYFRS,area with substrate ENLYFSS,area with substrate ENLYFTS,area with substrate ENLYFVS,area with substrate ENLYFWS,area with substrate ENLYFYS,area with substrate ENLYFGS,area with substrate ENLYFLS
MGESLFKGPRDYNPISSSICHLTNESDGHTTSLYGIGFEPFIITNKHLFRRNNGTLVVQSLHGVFKVKDTTTLQQHLVDGRDMIIIRMPKDFPPFPQKLKFREPQREERICLVTTNFQTKSMSSMVSDTSCTFPSGDGIFWKHWIQTKDGQCGSPLVSTRDGFIVGIHSASNFTNTNNYFTSVPKNFMELLTNQEAQQWVSGWRLNADSVLWGGHKVFMVKPEEPFQPVKEATQL [G39E],0.0467,0.0434,0.0616,0.047,0.0469,0.0296,0.0403,0.0423,0.047,0.0727,0.0472,0.0299,0.0431,0.0427,0.0593,0.044,0.0358,,
MGESLFKGPRDYNPISSSICHLTNESDGHTTSLYGIGFMPFIITNKHLFRRNNGTLVVQSLHGVFKVKDTTTLQQHLVDGRDMIIIRMPKDFPPFPQKLKFREPQREERICLVTTNFQTKSMSSMVSDTSCTFPSGDGIFWKHWIQTKDGQCGSPLVSTRDGFIVGIHSASNFTNTNNYFTSVPKNFMELLTNQEAQQWVSGWRLNADSVLWGGHKVFMVKPEEPFQPVKEATQL [G39M],0.0353,0.0366,0.0381,,0.044,0.0406,0.0406,0.051,0.0443,0.0329,0.0354,0.0448,0.0407,0.0299,0.0347,0.0341,0.04,0.039,0.0404
MGESLFKGPRDYNPISSSICHLTNESDGHTTSLYGIGFIPFIITNKHLFRRNNGTLVVQSLHGVFKVKDTTTLQQHLVDGRDMIIIRMPKDFPPFPQKLKFREPQREERICLVTTNFQTKSMSSMVSDTSCTFPSGDGIFWKHWIQTKDGQCGSPLVSTRDGFIVGIHSASNFTNTNNYFTSVPKNFMELLTNQEAQQWVSGWRLNADSVLWGGHKVFMVKPEEPFQPVKEATQL [G39I],0.0409,0.0464,,0.0509,0.0521,0.0297,0.0431,,0.0464,0.0476,0.0401,0.0422,,0.0502,,0.0381,,0.0297,0.0668
MGESLFKGPRDYNPISSSICHLTNESDGHTTSLYGIGFRPFIITNKHLFRRNNGTLVVQSLHGVFKVKDTTTLQQHLVDGRDMIIIRMPKDFPPFPQKLKFREPQREERICLVTTNFQTKSMSSMVSDTSCTFPSGDGIFWKHWIQTKDGQCGSPLVSTRDGFIVGIHSASNFTNTNNYFTSVPKNFMELLTNQEAQQWVSGWRLNADSVLWGGHKVFMVKPEEPFQPVKEATQL [G39R],0.0514,0.0376,,0.057,0.0479,0.0549,0.047,0.0484,0.0429,0.0411,0.0242,0.0549,0.0467,0.0531,,0.0529,,,
MGESLFKGPRDYNPISSSICHLTNESDGHTTSLYGIGFGPIIITNKHLFRRNNGTLVVQSLHGVFKVKDTTTLQQHLVDGRDMIIIRMPKDFPPFPQKLKFREPQREERICLVTTNFQTKSMSSMVSDTSCTFPSGDGIFWKHWIQTKDGQCGSPLVSTRDGFIVGIHSASNFTNTNNYFTSVPKNFMELLTNQEAQQWVSGWRLNADSVLWGGHKVFMVKPEEPFQPVKEATQL [F41I],0.0539,0.0539,0.0358,0.0667,0.0743,0.0597,0.061,0.0625,0.0542,,0.0572,0.0655,0.0656,0.0602,0.0402,0.0487,0.0509,0.0566,
MGESLFKGPRDYNPISSSICHLTNESDGHTTSLYGIGFGPFFITNKHLFRRNNGTLVVQSLHGVFKVKDTTTLQQHLVDGRDMIIIRMPKDFPPFPQKLKFREPQREERICLVTTNFQTKSMSSMVSDTSCTFPSGDGIFWKHWIQTKDGQCGSPLVSTRDGFIVGIHSASNFTNTNNYFTSVPKNFMELLTNQEAQQWVSGWRLNADSVLWGGHKVFMVKPEEPFQPVKEATQL [I42F],0.0454,,,0.0529,0.0586,,0.0398,0.0179,0.0508,,0.0295,,,0.0525,0.0621,0.0434,,0.0372,0.0427
MGESLFKGPRDYNPISSSICHLTNESDGHTTSLYGIGFGPFRITNKHLFRRNNGTLVVQSLHGVFKVKDTTTLQQHLVDGRDMIIIRMPKDFPPFPQKLKFREPQREERICLVTTNFQTKSMSSMVSDTSCTFPSGDGIFWKHWIQTKDGQCGSPLVSTRDGFIVGIHSASNFTNTNNYFTSVPKNFMELLTNQEAQQWVSGWRLNADSVLWGGHKVFMVKPEEPFQPVKEATQL [I42R],0.037,0.042,,0.0487,0.033,0.0552,0.0414,0.0498,0.0529,0.0537,0.0423,0.0454,0.04,0.0591,,0.0396,,,
MGESLFKGPRDYNPISSSICHLTNESDGHTTSLYGIGFGPFLITNKHLFRRNNGTLVVQSLHGVFKVKDTTTLQQHLVDGRDMIIIRMPKDFPPFPQKLKFREPQREERICLVTTNFQTKSMSSMVSDTSCTFPSGDGIFWKHWIQTKDGQCGSPLVSTRDGFIVGIHSASNFTNTNNYFTSVPKNFMELLTNQEAQQWVSGWRLNADSVLWGGHKVFMVKPEEPFQPVKEATQL [I42L],0.0543,,0.06,0.0497,0.0572,0.0616,0.0541,,0.0646,,0.0415,0.0614,0.0594,0.0595,0.0744,,,0.0504,0.0497
MGESLFKGPRDYNPISSSICHLTNESDGHTTSLYGIGYGPFIITNKHLFRRNNGTLVVQSLHGVFKVKDTTTLQQHLVDGRDMIIIRMPKDFPPFPQKLKFREPQREERICLVTTNFQTKSMSSMVSDTSCTFPSGDGIFWKHWIQTKDGQCGSPLVSTRDGFIVGIHSASNFTNTNNYFTSVPKNFMELLTNQEAQQWVSGWRLNADSVLWGGHKVFMVKPEEPFQPVKEATQL [F38Y],0.0356,0.0545,0.0578,0.066,0.0744,0.0794,0.0544,0.0535,0.0563,0.0618,0.0632,,0.0564,,,0.0373,0.0497,,0.0592
MGESLFKGPRDYNPISSSICHLTNESDGHTTSLYGIGFGPFIITTKHLFRRNNGTLVVQSLHGVFKVKDTTTLQQHLVDGRDMIIIRMPKDFPPFPQKLKFREPQREERICLVTTNFQTKSMSSMVSDTSCTFPSGDGIFWKHWIQTKDGQCGSPLVSTRDGFIVGIHSASNFTNTNNYFTSVPKNFMELLTNQEAQQWVSGWRLNADSVLWGGHKVFMVKPEEPFQPVKEATQL [N45T],0.0644,0.0595,0.0596,0.0627,0.0688,0.0475,0.0592,0.0575,0.0511,0.0536,0.0634,0.0663,0.0667,0.0639,0.0493,0.0585,0.0671,,0.0622
MGESLFKGPRDYNPISSSICHLTNESDGHTTSLYGIGFGPFIISNKHLFRRNNGTLVVQSLHGVFKVKDTTTLQQHLVDGRDMIIIRMPKDFPPFPQKLKFREPQREERICLVTTNFQTKSMSSMVSDTSCTFPSGDGIFWKHWIQTKDGQCGSPLVSTRDGFIVGIHSASNFTNTNNYFTSVPKNFMELLTNQEAQQWVSGWRLNADSVLWGGHKVFMVKPEEPFQPVKEATQL [T44S],0.0491,0.0468,,0.0496,0.0713,0.0583,0.0554,,0.0804,0.0515,0.0631,0.0836,,0.0559,0.0515,,0.0551,0.0664,
MGESLFKGPRDYNPISSSICHLTNESDGHTTSLYGIGFGPFIIPNKHLFRRNNGTLVVQSLHGVFKVKDTTTLQQHLVDGRDMIIIRMPKDFPPFPQKLKFREPQREERICLVTTNFQTKSMSSMVSDTSCTFPSGDGIFWKHWIQTKDGQCGSPLVSTRDGFIVGIHSASNFTNTNNYFTSVPKNFMELLTNQEAQQWVSGWRLNADSVLWGGHKVFMVKPEEPFQPVKEATQL [T44P],0.0412,0.0297,0.0419,0.0317,0.0617,0.0376,0.0419,0.0453,0.0402,0.037,0.0461,0.0361,0.0194,0.0459,0.0437,0.034,,0.0457,0.0533
MGESLFKGPRDYNPISSSICHLTNESDGHTTSLYGIGFGPFISTNKHLFRRNNGTLVVQSLHGVFKVKDTTTLQQHLVDGRDMIIIRMPKDFPPFPQKLKFREPQREERICLVTTNFQTKSMSSMVSDTSCTFPSGDGIFWKHWIQTKDGQCGSPLVSTRDGFIVGIHSASNFTNTNNYFTSVPKNFMELLTNQEAQQWVSGWRLNADSVLWGGHKVFMVKPEEPFQPVKEATQL [I43S],0.0486,0.0537,0.0469,,0.0434,0.0648,0.0483,0.0494,0.0484,0.0394,0.0486,0.0465,0.0443,0.06,0.0482,0.0473,0.0466,,
MGESLFKGPRDYNPISSSICHLTNESDGHTTSLYGIGFGPFINTNKHLFRRNNGTLVVQSLHGVFKVKDTTTLQQHLVDGRDMIIIRMPKDFPPFPQKLKFREPQREERICLVTTNFQTKSMSSMVSDTSCTFPSGDGIFWKHWIQTKDGQCGSPLVSTRDGFIVGIHSASNFTNTNNYFTSVPKNFMELLTNQEAQQWVSGWRLNADSVLWGGHKVFMVKPEEPFQPVKEATQL [I43N],0.0516,0.0405,,0.0578,0.0543,0.0339,0.0375,0.0639,0.0406,,,0.0526,0.0319,0.0437,0.0345,0.0292,0.0257,0.0386,
MGESLFKGPRDYNPISSSICHLTNESDGHTTSLYGIGFGPFILTNKHLFRRNNGTLVVQSLHGVFKVKDTTTLQQHLVDGRDMIIIRMPKDFPPFPQKLKFREPQREERICLVTTNFQTKSMSSMVSDTSCTFPSGDGIFWKHWIQTKDGQCGSPLVSTRDGFIVGIHSASNFTNTNNYFTSVPKNFMELLTNQEAQQWVSGWRLNADSVLWGGHKVFMVKPEEPFQPVKEATQL [I43L],0.0582,0.0442,0.0438,0.0578,0.0606,0.0599,0.0586,0.055,0.0593,0.0545,0.0587,,0.0407,0.0558,0.053,0.0558,,0.0481,0.064
MGESLFKGPRDYNPISSSICHLTNESDGHTTSLYGIGFGPFIATNKHLFRRNNGTLVVQSLHGVFKVKDTTTLQQHLVDGRDMIIIRMPKDFPPFPQKLKFREPQREERICLVTTNFQTKSMSSMVSDTSCTFPSGDGIFWKHWIQTKDGQCGSPLVSTRDGFIVGIHSASNFTNTNNYFTSVPKNFMELLTNQEAQQWVSGWRLNADSVLWGGHKVFMVKPEEPFQPVKEATQL [I43A],0.0512,0.0408,,0.0402,0.0644,0.0678,0.059,,0.0592,0.0543,0.0559,0.0603,0.0529,0.0586,0.0596,0.0361,,0.0542,0.0492
MGESLFKGPRDYNPISSSICHLTNESDGHTTSLYGIGFGPFIQTNKHLFRRNNGTLVVQSLHGVFKVKDTTTLQQHLVDGRDMIIIRMPKDFPPFPQKLKFREPQREERICLVTTNFQTKSMSSMVSDTSCTFPSGDGIFWKHWIQTKDGQCGSPLVSTRDGFIVGIHSASNFTNTNNYFTSVPKNFMELLTNQEAQQWVSGWRLNADSVLWGGHKVFMVKPEEPFQPVKEATQL [I43Q],0.0309,0.0339,0.0421,0.0464,0.0555,0.0448,0.0467,0.0572,0.0424,0.0278,0.042,0.0488,0.0541,0.0453,0.0444,0.056,0.0369,0.0508,
